# PubChem BioAssay AID686978 (National Center for Advancing Translational Sciences (NCATS), 2013)
# Several values for one entry are separate records, joined by “and”; a condition that tells them apart may be missing. Equal values may be shown once. About 64,000 (15%) of roughly 420,000 compounds were called active. Inconclusive means that the source gave no clear call. Such entries were picked first, then a sample of the others. Calls follow the shape of the dose curve; as a rule, active = well fitted inhibition curve with a large enough effect; inconclusive = small, poorly fitted or top-dose-only effect; inactive = flat fitted curve, though single readings scatter. Potencies beside an inconclusive call are fits to weak or partial responses and may not hold up.
# Experiment: qHTS for Inhibitors of human tyrosyl-DNA phosphodiesterase 1 (TDP1): qHTS in cells in absence of CPT; also: nearly all actives have a fitted effect of over 55% in size
# Conditions: DT40 Tdp1-/- hTDP1 cells, no CPT, ATP luminescence, 48 h; activity change, negative = growth inhibition: at 46.2 µM (top of the series)
# How it was run: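 Chicken DT40 Tdp1-/- cells complemented with human TDP1, screened without camptothecin (DMSO vehicle only), 400 cells/well. Compounds pin-transferred, cells incubated at 37 °C for at least 48 hr. Growth read as ATP-dependent luminescence (CellTiter-Glo, 30 min at RT).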
# % is scaled to controls: 0 for no effect and ±100 for the full control effect; potency is read from the fitted curve at half-maximal effect; tags tell the direction and shape of the fitted curve.
SMILES,"activity change, negative = growth inhibition",Potency
Cc1cc(Cl)ccc1OC(C)C(=O)NNC(=O)C1CCCCC1C(=O)O (centres undefined),inactive: -31.5%,–
C=CCn1c2ccccc2c2nnc(SCC(=O)Nc3cc(C)on3)nc21,–,"inconclusive: 16.4 µM [inhibitor, single point]"
O=C(Oc1ccccc1Cl)c1ccccc1,inactive: 1.02%,–
CC1(C)N=C(N)N=C(N)N1c1cccc(CN)c1,–,"inconclusive: 2.06 µM [inhibitor, full curve]"
CCN1CCN(C(c2ccccn2)c2c(NC(=O)c3ccccc3)sc(C)c2C)CC1 (centres undefined),–,active: 8.2 µM
C[C@H]1CN([C@@H](C)CO)S(=O)(=O)c2ccc(Br)cc2O[C@H]1CN(C)C(=O)NC1CCCCC1,inactive: -2.35%,–
COc1ccccc1-c1noc(-c2ccc(NCc3cccnc3)c([N+](=O)[O-])c2)n1,–,"inconclusive: 1.84 µM [inhibitor, full curve]"
CCOC(=O)/C(C#N)=C/Nc1cc(C(C)(C)C)sc1C(C)=O,–,"inconclusive: 29.1 µM [inhibitor, single point]"
CCCSc1nnc2c(n1)OC(c1ccc(OCC(=O)O)cc1)Nc1ccccc1-2 (centres undefined),inactive: -0.915%,–
COc1ccccc1CNc1ncc(-c2ccccc2)n1C,–,"inconclusive: 18.4 µM [inhibitor, single point]"
O=C(/C=C/c1ccc(Br)cc1)c1ccc(NC2=NCCCS2)cc1,–,"inconclusive: 4.61 µM [inhibitor, full curve]"
COc1ccc(C(=O)N2CCC2)cc1S(=O)(=O)NCc1ccc(Cl)cc1,inactive: 13.4%,–
Fc1ccccc1C1c2[nH]c3ccccc3c2CCN1Cc1ccoc1 (centres undefined),–,"inconclusive: 29.1 µM [inhibitor, single point]"
CCOc1ncccc1C(=O)NNC(=O)c1cccc(S(=O)(=O)Nc2ccccc2OC)c1,inactive: -18.9%,–
CCn1nc(C)c(Br)c1-c1nc(CS(=O)(=O)c2ccsc2)no1,–,"inconclusive: 6.51 µM [inhibitor, partial curve]"
CC(C)(C)n1nnnc1C(c1cccnc1)N1CCN(c2cccc(C(F)(F)F)c2)CC1 (centres undefined),–,active: 20.6 µM
COc1ccccc1CNCC(=O)Nc1ccc(N(C)C)cc1,–,"inconclusive: 29.1 µM [inhibitor, single point]"
Cc1ccc(NC(=O)CCN2C(=O)c3ccccc3C2=O)cc1,inactive: 2.62%,–
Cc1cc(N2CCOCC2)n2nc(C(F)(F)F)c(-c3ccccc3)c2n1,inactive: -7.45%,–
Cc1ccc(NC(=O)COc2ccc(C(=O)c3ccccc3)cc2)c(O)c1,–,"inconclusive: 13 µM [inhibitor, partial curve]"
COc1ccc(N2CCN(C(=O)c3cc4c(s3)CCCCC4)CC2)cc1,–,"inconclusive: 18.4 µM [inhibitor, single point]"
CCOC(=O)C1=CCN(S(=O)(=O)c2ccccc2C)C1c1cccc(C)c1 (centres undefined),–,"inconclusive: 29.1 µM [inhibitor, single point]"
Cc1cccc(C)c1OCc1nc2ccccc2[nH]1,–,"inconclusive: 29.1 µM [inhibitor, single point]"
O=C(NC1CCCCCCC1)c1ccc(Br)o1,–,active: 4.61 µM
Cc1cc(C)cc(NC(=O)C(=O)NCC(c2cccnc2)N2CCN(c3ccccc3)CC2)c1 (centres undefined),–,active: 16.4 µM

SMILES,"activity change, negative = growth inhibition",Potency
CCC(CC)C(=O)NCCc1cc2c(C)ccc(C)c2[nH]c1=O,inactive: 3.31%,–
COc1cc2c(NC3CCN(C)CC3)nc(N3CCCN(C)CC3)nc2cc1OCc1ccccc1,–,active: 2.82 µM
COc1cccc(N2CCN(C(=O)c3ccc4nc(N5CCCCC5)sc4c3)CC2)c1,–,active: 16.4 µM
CCCCn1cc(S(=O)(=O)c2ccc(CC)cc2)c(=O)c2cc(F)c(N3CCOCC3)cc21,–,active: 18.4 µM
Cc1ccccc1Nc1c(-c2ccc(Cl)s2)nc2ccccn12,inconclusive: -33.5% [inhibitor],–
CCc1nc2sc3c(=O)[nH]cnc3c2c2c1CSC(C)(C)C2,–,"inconclusive: 16.4 µM [inhibitor, partial curve, poor fit]"
CC1(C)CC(=O)C=C(c2ccc(-c3ccc(S(C)(=O)=O)cc3)cc2)C1=O,–,active: 11.6 µM
CCOc1ccc(N(C(C)C(=O)NCCSc2ccc(C)cc2)S(C)(=O)=O)cc1 (centres undefined),–,"inconclusive: 29.1 µM [inhibitor, single point]"
O=C(Cc1cccs1)Nc1cccc(-c2ccc3nncn3n2)c1,–,"inconclusive: 25.9 µM [inhibitor, single point]"
Cc1ccc(OCC(=O)Nc2ccc3oc(=O)ccc3c2)cc1C,–,"inconclusive: 11.6 µM [inhibitor, single point]"
CC(O)Cn1ccccc1=N (centres undefined),inactive: -0.493%,–
CC(C)C[C@@H]1O[C@H](CCc2ccccc2)CC2=C1C(=O)OC(C)(C)O2,–,"inconclusive: 18.4 µM [inhibitor, single point] and inconclusive: 29.1 µM [inhibitor, single point]"
Cc1ccc(S(=O)(=O)NCCC(=O)NNC(=O)c2ccccc2O)cc1C,–,"inconclusive: 29.1 µM [inhibitor, single point]"
COc1ccc(C)cc1NC(=O)COC(=O)c1c(-c2ccccc2)noc1C,–,active: 23.1 µM
Cc1ccc(C)c(NC(=S)NCc2ccccc2)c1,–,"inconclusive: 18.4 µM [inhibitor, single point]"
CCCCc1nc2ccccc2c(NC(=O)CN(CC)CC)c1CCC,–,"inconclusive: 29.1 µM [inhibitor, single point]"
Cc1cc(OCc2cc(C(=O)N3CCC(Oc4cccnc4)CC3)no2)cc(C)c1Cl,–,active: 14.6 µM
CN1CCN(C(c2cccnc2)c2ccc3cccnc3c2O)CC1 (centres undefined),–,active: 16.4 µM
O=Nc1c(O)n(Cc2ccc(Cl)cc2)c2ccccc12,inactive: -25.5%,–
O=C(CNC1CCCC1)Nc1ccc(N2CCCCCC2)cc1,–,"inconclusive: 25.9 µM [inhibitor, single point]"
O=C(c1cc(-c2ccc(Br)cc2)on1)N1CCOCC1,inactive: -16.2%,–
CCCCC(=O)Nc1ccccc1Oc1ccccc1,–,"inconclusive: 29.1 µM [inhibitor, single point]"
CC(Nc1nc(N2CCN(CCO)CC2)nc2ccccc12)c1ccccc1 (centres undefined),–,"inconclusive: 18.4 µM [inhibitor, single point]"
COC(=O)CCCn1cc(CN(C)C2CN(Cc3cn(CCCC(=O)OC)nn3)S(=O)(=O)C2)nn1 (centres undefined),inactive: -14.8%,–
Cc1ccc(N2C(=O)c3ccc(C(=O)O)cc3C2=O)c(C)c1,inactive: -1.97%,–

SMILES,"activity change, negative = growth inhibition",Potency
COc1ccc(C(=O)CCC(=O)O)c2ccccc12,inactive: -9.57%,–
COc1ccc(-c2cc(C(=O)NCCc3ccc(OC)c(OC)c3)c3ccccc3n2)cc1,–,active: 11.6 µM
CCNC(=S)N1CCC(C(N)=O)CC1,inactive: 27.8%,–
CN1CCN(C(=O)CCCN2C(=O)/C(=C/c3cccc(Br)c3)SC2=S)CC1,–,"inconclusive: 25.9 µM [inhibitor, single point]"
CCOc1ccccc1N1CC(O)=C(c2nc3ccccc3s2)C1=N,–,active: 4.11 µM
COc1ccc(NC(=O)C(C)Sc2cc(-c3ccccc3)nc(C)n2)cc1Cl (centres undefined),–,active: 20.6 µM
CCCc1ccc(S(=O)(=O)N2CCN(C(C)C(=O)NCc3ccccc3)CC2)cc1 (centres undefined),–,"inconclusive: 29.1 µM [inhibitor, single point]"
CCOC(=O)C1=NNC2(c3ccc(C)cc3)C(=O)N(c3ccc(Cl)cc3)C(=O)C12 (centres undefined),inactive: -2.33%,–
O=C(NCCCN1CCN(c2ccccc2)CC1)Nc1ccccc1C(F)(F)F,–,"inconclusive: 20.6 µM [inhibitor, single point]"
O=C1CN(C(=O)Nc2ccccc2Cl)C(c2ccccc2)c2c(sc3c2CCCC3)N1 (centres undefined),–,"inconclusive: 18.4 µM [inhibitor, single point]"
CN(CC(=O)Nc1cccc(F)c1)C(=O)c1ccc(-c2cccc(C(F)(F)F)c2)o1,–,"inconclusive: 29.1 µM [inhibitor, single point]"
OC(CN1CCN(c2ccccc2)CC1)c1c[nH]c2ccccc12 (centres undefined),–,"inconclusive: 10.3 µM [inhibitor, partial curve]"
Nc1cc(N)nc(SCc2cccc(F)c2)n1,inactive: 2.63%,–
COc1ccc(-c2noc(-c3ccc(NC4CCCCC4)c([N+](=O)[O-])c3)n2)cc1,inactive: 7.37%,–
Cc1ccc(S(=O)(=O)N2CCCN(C(=O)c3ccc(-n4nccc4C)cc3)CC2)cc1,–,"inconclusive: 25.9 µM [inhibitor, partial curve]"
CCn1c2ccccc2c2cc(NC(=O)CSc3nnc(-c4cccc(C)c4)o3)ccc21,–,"inconclusive: 29.1 µM [inhibitor, single point]"
N#Cc1ccc(C(C(=O)NCc2ccccc2)n2c(=O)c(-c3ccco3)nc3ccccc32)cc1 (centres undefined),–,"inconclusive: 29.1 µM [inhibitor, single point]"
O=C(c1ccco1)N1CCN(CC(O)COc2ccc3oc4ccccc4c3c2)CC1 (centres undefined),–,"inconclusive: 23.1 µM [inhibitor, single point]"
Cc1csc(NC(=O)C2CCN(S(=O)(=O)c3ccc4c(c3)oc(=O)n4C)CC2)n1,inactive: -16.2%,–
O=C(CSC(=S)N1CCCCC1)c1ccccc1,–,"inconclusive: 18.4 µM [inhibitor, single point]"
CC(C)Cc1nnc(NC(=O)CCC(=O)N2CCN(Cc3ccccc3)CC2)s1,inactive: 6.58%,–
CN1C(=O)c2ccccc2Sc2ccc(NC(=O)NC3CC3)cc21,–,"inconclusive: 25.9 µM [inhibitor, single point]"
O=C(NCC1(c2ccccc2)CCCC1)c1ccc(Br)cc1,–,"inconclusive: 20.6 µM [inhibitor, single point]"
Cc1ccc(CS(=O)Cc2ccc(C(=O)NCCCc3ccccc3)o2)cc1 (centres undefined),–,"inconclusive: 29.1 µM [inhibitor, single point]"
